# According to the supplement of paper PMC8728848:
# The list shows a part of the results.
# B1: Epa10 (protein)
# chain: MNEKIFRYLTLLFLFELARSLPVEDKLNIKKVFEKRAVDFTPFAHYPRPEGCSSPPNSVSVGLHMNLYNYPYLYVKPSTKGMFTNDTNSDADGETDGDSAGGIEGRAGQCWNPEYQDPNFPRFGYKQYGEFGASDNVNGDISWDHNEFTEGCKPVLAALPPGYNYPDEITFSNFTMVLSGYFKPKTSGVYKFELKADDFILFNFGAKNAFECCNREESIDNFGPYVAYAMWPNQADQELEVYLFEDSYYPLRLFYNNRDYHSKFKIGFYPPGQTTITFDFDGYLFMLDDTGNECRDSIRYRTVCDDKVVDDTTYSTRYSTSMVPGGGSDVITIYYIRMKCEEEDCLGQWDPINNVCYSPDDCADDGGYWNGQMCDQSCKLEGGIVNPDTGDCDKSCIESGGFLDENGNCDTTCRDDGGMLVEGQCDYQCKEAGGILVGDHCDTTCVDSGGKLNEDGTCDHSCRDQGGQLDENGECDTSCKDSGGMLIEGECDTSCKDEGGQLDDNNECINHCKDQGGIIDENGNCDTSCKDSGGKLDESGACDTSCRDDGGIIDENGNCNTTCRDDGGIIVGDHCDTSCRDAGGILIEDHCDTTCRDSGGKLNEDGTCDHSCRDQGGQLDENGKCDYSCKNGGGKLDEDGNCDMSCKENGGKLDENGDCDLSCKEDGGKLDGNGDCDYSCKEEGGVIDESGNCNTTCKDSGGQIIDGECNYGCIEVGGVVIDGECDTSCIDSGGILDGDGNCDRSCIESGGVLEDGACNTTCRDSGGQLNVDGTCDTSCRDDGGMLVEGQCDYQCKEAGGILEDGECVFPPTSSSTSETSSTTDQSSLQSDDSSMESSSTPMDSSTIESSSSEIITSESESESVPIASSSSEVMTSESESESIPILTSSSEIPIASSSSEIPVASSSSEIIIPESESESVPVASSSSEIPIASSSSEIPVASSSSEIPVASSSSEIIIPESESESIPIESTSSEAVSSRSESDSSYPTPTPTTTTITTWPNPIQPTTSNSSPIVSSSTETPGIAESSSRISDLESSRRTSILGDDRTRTRTTITSTITEDGQIITITTTVTGFVPEPTGETEGNGSDDENPENPIENNTDENEFLDPEFTDDIPDDPAGPEDNGNGPVNPEQGNDNDPVNLEDSGNNGAVNPEQAPVNDEDNGGNDPVNPEQDNNNGPANPGQDSTNGSGNSDQIDNNPPTPEENAGDGNSNGNDPADPSRRTSILGDERTRASPGGTSQPTGANGNVNGNSPGANVNGGGTGNSNNNNNNNNNNNNGNAPNGGDGSNGDANQGPSRRTSLLGDERTRAGQAAPTGGSSPDNGIAGDTSNNGGAIVSQQVDDGGAGSPRRTSILGDVRSRTTLNGEVLNFEGSGVRRAVAGNLALPLMMVGLVFNL
# Columns and labels:
# Assay in all cases: glycan array binding signal (z-score within array); higher = stronger binding
# Settings in all cases: glycan notation: IUPAC condensed, linker removed
# [1] = molecular target: Fuc(a1-2)[Gal(a1-3)]Gal(b1-4)GlcNAc(b1-2)Man(a1-3)[Fuc(a1-2)[Gal(a1-3)]Gal(b1-4)GlcNAc(b1-2)Man(a1-6)]Man(b1-4)GlcNAc(b1-4)[Fuc(a1-6)]GlcNAc
# Procedure, shortened: (§1)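 The binding signal is a Z-score computed within each array. Data were drawn from 3228 arrays in the Consortium for Functional Glycomics database, restricted to those with a known protein sequence. Scores were averaged over arrays of the same protein sequence at different concentrations or buffers, and over linkers, and negative values can be taken as non-binding.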
# [2] = molecular target: Fuc(a1-2)[Gal(a1-3)]Gal(b1-4)GlcNAc(b1-3)GalNAc
# Procedure, shortened: as §1
# [3] = molecular target: Fuc(a1-2)[Gal(a1-3)]Gal(b1-4)GlcNAc(b1-3)[Fuc(a1-2)[Gal(a1-3)]Gal(b1-4)GlcNAc(b1-6)]GalNAc
# Procedure, shortened: as §1
# [4] = molecular target: Fuc(a1-2)[Gal(a1-3)]Gal(b1-4)GlcNAc(b1-6)GalNAc
# Procedure, shortened: as §1
# [5] = molecular target: Fuc(a1-2)[Gal(a1-3)]Gal(b1-4)[Fuc(a1-3)]Glc
# Procedure, shortened: as §1
# [6] = molecular target: Fuc(a1-2)[Gal(a1-3)]Gal(b1-4)[Fuc(a1-3)]GlcNAc
# Procedure, shortened: as §1
# [7] = molecular target: Fuc(a1-2)[Gal(a1-3)]Gal(b1-4)[Fuc(a1-3)]GlcNAc(b1-3)GalNAc
# Procedure, shortened: as §1
# [8] = molecular target: Fuc(a1-2)[Gal(a1-4)]Gal(b1-4)GlcNAc
# Procedure, shortened: as §1
# [9] = molecular target: Fuc(a1-2)[GalNAc(a1-3)]Gal
# Procedure, shortened: as §1
# [10] = molecular target: Fuc(a1-2)[GalNAc(a1-3)]Gal(b1-3)GalNAc(a1-3)[Fuc(a1-2)]Gal(b1-4)GlcNAc
# Procedure, shortened: as §1
# [11] = molecular target: Fuc(a1-2)[GalNAc(a1-3)]Gal(b1-3)GalNAc(b1-3)Gal(a1-4)Gal(b1-4)Glc
# Procedure, shortened: as §1
# [12] = molecular target: Fuc(a1-2)[GalNAc(a1-3)]Gal(b1-3)GlcNAc
# Procedure, shortened: as §1
# [13] = molecular target: Fuc(a1-2)[GalNAc(a1-3)]Gal(b1-3)GlcNAc(b1-2)Man(a1-3)[Fuc(a1-2)[GalNAc(a1-3)]Gal(b1-3)GlcNAc(b1-2)Man(a1-6)]Man(b1-4)GlcNAc(b1-4)GlcNAc
# Procedure, shortened: as §1
# [14] = molecular target: Fuc(a1-2)[GalNAc(a1-3)]Gal(b1-3)GlcNAc(b1-2)Man(a1-3)[Fuc(a1-2)[GalNAc(a1-3)]Gal(b1-3)GlcNAc(b1-2)Man(a1-6)]Man(b1-4)GlcNAc(b1-4)[Fuc(a1-6)]GlcNAc
# Procedure, shortened: as §1
# [15] = molecular target: Fuc(a1-2)[GalNAc(a1-3)]Gal(b1-3)GlcNAc(b1-3)GalNAc
# Procedure, shortened: as §1
# [16] = molecular target: Fuc(a1-2)[GalNAc(a1-3)]Gal(b1-3)GlcNAc(b1-6)GalNAc
# Procedure, shortened: as §1
# [17] = molecular target: Fuc(a1-2)[GalNAc(a1-3)]Gal(b1-4)Glc
# Procedure, shortened: as §1
# [18] = molecular target: Fuc(a1-2)[GalNAc(a1-3)]Gal(b1-4)GlcNAc
# Procedure, shortened: as §1
# [19] = molecular target: Fuc(a1-2)[GalNAc(a1-3)]Gal(b1-4)GlcNAc(b1-2)Man
# Procedure, shortened: as §1
# [20] = molecular target: Fuc(a1-2)[GalNAc(a1-3)]Gal(b1-4)GlcNAc(b1-2)Man(a1-3)[Fuc(a1-2)[GalNAc(a1-3)]Gal(b1-4)GlcNAc(b1-2)Man(a1-6)]Man(b1-4)GlcNAc(b1-4)GlcNAc
# Procedure, shortened: as §1
# [21] = molecular target: Fuc(a1-2)[GalNAc(a1-3)]Gal(b1-4)GlcNAc(b1-2)Man(a1-3)[Fuc(a1-2)[GalNAc(a1-3)]Gal(b1-4)GlcNAc(b1-2)Man(a1-6)]Man(b1-4)GlcNAc(b1-4)[Fuc(a1-6)]GlcNAc
# Procedure, shortened: as §1
# [22] = molecular target: Fuc(a1-2)[GalNAc(a1-3)]Gal(b1-4)GlcNAc(b1-3)Gal(b1-4)GlcNAc
# Procedure, shortened: as §1
# [23] = molecular target: Fuc(a1-2)[GalNAc(a1-3)]Gal(b1-4)GlcNAc(b1-3)Gal(b1-4)GlcNAc(b1-3)Gal(b1-4)GlcNAc
# Procedure, shortened: as §1
# [24] = molecular target: Fuc(a1-2)[GalNAc(a1-3)]Gal(b1-4)GlcNAc(b1-3)GalNAc
# Procedure, shortened: as §1
# [25] = molecular target: Fuc(a1-2)[GalNAc(a1-3)]Gal(b1-4)GlcNAc(b1-3)[Fuc(a1-2)[GalNAc(a1-3)]Gal(b1-4)GlcNAc(b1-6)]GalNAc
# Procedure, shortened: as §1
# [26] = molecular target: Fuc(a1-2)[GalNAc(a1-3)]Gal(b1-4)GlcNAc(b1-6)GalNAc
# Procedure, shortened: as §1
# [27] = molecular target: Fuc(a1-2)[GalNAc(a1-3)]Gal(b1-4)[Fuc(a1-3)]GlcNAc
# Procedure, shortened: as §1
# [28] = molecular target: Fuc(a1-2)[GalNAc(a1-3)]Gal(b1-4)[Fuc(a1-3)]GlcNAc(b1-3)GalNAc
# Procedure, shortened: as §1
# [29] = molecular target: Fuc(a1-2)[GalNAc(a1-4)]Gal(b1-4)GlcNAc
# Procedure, shortened: as §1
# [30] = molecular target: Fuc(a1-2)[GalNAc(b1-3)]Gal
# Procedure, shortened: as §1
# Fuc(a1-3)GlcNAc = molecular target: Fuc(a1-3)GlcNAc
# Procedure, shortened: as §1
# [31] = molecular target: Fuc(a1-3)[Gal(b1-4)]Glc6S
# Procedure, shortened: as §1
# [32] = molecular target: Fuc(a1-3)[Gal(b1-4)]GlcNAc
# Procedure, shortened: as §1
# [33] = molecular target: Fuc(a1-3)[Gal(b1-4)]GlcNAc(b1-2)Man
# Procedure, shortened: as §1
# [34] = molecular target: Fuc(a1-3)[Gal(b1-4)]GlcNAc(b1-2)Man(a1-3)[Fuc(a1-3)[Gal(b1-4)]GlcNAc(b1-2)Man(a1-6)]Man(b1-4)GlcNAc(b1-4)GlcNAc
# Procedure, shortened: as §1
# [35] = molecular target: Fuc(a1-3)[Gal(b1-4)]GlcNAc(b1-2)Man(a1-3)[Fuc(a1-3)[Gal(b1-4)]GlcNAc(b1-2)Man(a1-6)]Man(b1-4)GlcNAc(b1-4)[Fuc(a1-6)]GlcNAc
# Procedure, shortened: as §1
# [36] = molecular target: Fuc(a1-3)[Gal(b1-4)]GlcNAc(b1-3)Gal(b1-3)[Fuc(a1-4)]GlcNAc
# Procedure, shortened: as §1
# [37] = molecular target: Fuc(a1-3)[Gal(b1-4)]GlcNAc(b1-3)Gal(b1-4)[Fuc(a1-3)]GlcNAc
# Procedure, shortened: as §1
# [38] = molecular target: Fuc(a1-3)[Gal(b1-4)]GlcNAc(b1-3)Gal(b1-4)[Fuc(a1-3)]GlcNAc(b1-3)Gal(b1-4)[Fuc(a1-3)]GlcNAc
# Procedure, shortened: as §1
# [39] = molecular target: Fuc(a1-3)[Gal(b1-4)]GlcNAc(b1-3)GalNAc
# Procedure, shortened: as §1
# [40] = molecular target: Fuc(a1-3)[Gal(b1-4)]GlcNAc(b1-6)GalNAc
# Procedure, shortened: as §1
# [41] = molecular target: Fuc(a1-3)[Gal(b1-4)]GlcNAc(b1-6)[Gal(b1-3)GlcNAc(b1-3)]Gal(b1-4)Glc
# Procedure, shortened: as §1
# [42] = molecular target: Fuc(a1-3)[Gal(b1-4)]GlcNAc6S
# Procedure, shortened: as §1
# [43] = molecular target: Fuc(a1-3)[Gal3S(b1-4)]Glc
# Procedure, shortened: as §1
# [44] = molecular target: Fuc(a1-3)[Gal3S(b1-4)]GlcNAc
# Procedure, shortened: as §1
binder,measurement,setting,value
B1,glycan array binding signal (z-score),[1],-0.219
same,glycan array binding signal (z-score),[2],-0.253
same,glycan array binding signal (z-score),[3],-0.185
same,glycan array binding signal (z-score),[4],-0.16
same,glycan array binding signal (z-score),[5],-0.253
same,glycan array binding signal (z-score),[6],-0.207
same,glycan array binding signal (z-score),[7],-0.118
same,glycan array binding signal (z-score),[8],0.73
same,glycan array binding signal (z-score),[9],-0.271
same,glycan array binding signal (z-score),[10],-0.215
same,glycan array binding signal (z-score),[11],-0.219
same,glycan array binding signal (z-score),[12],-0.231
same,glycan array binding signal (z-score),[13],-0.272
same,glycan array binding signal (z-score),[14],-0.228
same,glycan array binding signal (z-score),[15],-0.137
same,glycan array binding signal (z-score),[16],-0.228
same,glycan array binding signal (z-score),[17],-0.26
same,glycan array binding signal (z-score),[18],-0.251
same,glycan array binding signal (z-score),[19],-0.225
same,glycan array binding signal (z-score),[20],-0.175
same,glycan array binding signal (z-score),[21],-0.227
same,glycan array binding signal (z-score),[22],-0.315
same,glycan array binding signal (z-score),[23],-0.182
same,glycan array binding signal (z-score),[24],-0.211
same,glycan array binding signal (z-score),[25],-0.237
same,glycan array binding signal (z-score),[26],-0.201
same,glycan array binding signal (z-score),[27],-0.164
same,glycan array binding signal (z-score),[28],-0.113
same,glycan array binding signal (z-score),[29],-0.334
same,glycan array binding signal (z-score),[30],-0.284
same,glycan array binding signal (z-score),Fuc(a1-3)GlcNAc,-0.335
same,glycan array binding signal (z-score),[31],-0.114
same,glycan array binding signal (z-score),[32],-0.256
same,glycan array binding signal (z-score),[33],-0.139
same,glycan array binding signal (z-score),[34],-0.195
same,glycan array binding signal (z-score),[35],-0.206
same,glycan array binding signal (z-score),[36],-0.28
same,glycan array binding signal (z-score),[37],-0.202
same,glycan array binding signal (z-score),[38],-0.193
same,glycan array binding signal (z-score),[39],-0.22
same,glycan array binding signal (z-score),[40],-0.133
same,glycan array binding signal (z-score),[41],-0.228
same,glycan array binding signal (z-score),[42],-0.223
same,glycan array binding signal (z-score),[43],-0.243
same,glycan array binding signal (z-score),[44],-0.257
